Read counts are not given, so values of variants with three or more changes are uncertain.
B1: OR4K15 (parent)
chain: GUUAACGGUCAUAGGCCAUGGAAACUAGGAGCACCAUUUCGCUGCCAGUGAAGAAAUGAACAAAGAAAAUCUGGGCCAGGCAGGCAUCAAAAGAAAUAGUCUUGCGCUCAACCAGAAAGUCUGUAAUCAUUUUAAGGGUA

Variants of: B1
Assay: self-cleavage, relative activity (ratio to wild type); higher = more cleavage; in vitro, sequencing; the parent is a self-cleaving ribozyme

Row | Variant | self-cleavage
1 | A67G U70C A91G A110U | 0.18
2 | A62G A90G G99A | 0.27
3 | A62G A78G U130C | 0.1
4 | A67G C76U A118U U122A | 0.01
5 | A68G A86G A92U A118U | 0.99
6 | A64C A68G A95G | 1.29
7 | A60G A110G A114G U131C | 0.05
8 | A62G A114G A117G | 0.12
9 | A68G A78U A110G | 0.07
10 | A60G G79A U103C U131C | 0.02
11 | A64G A86G A91G | 0.05
12 | A66G A117G A126G | 2
13 | A63G U87A U108C A125G | 0
14 | A66G U102A U124C | 0.86
15 | A63G A82G U132A | 0.28
16 | A60U A90G A96G | 0.45
17 | A64C G80C U100C | 0.05
18 | C61U A94G G119A U139C | 1.6
19 | A66U A95G A111G U130C U133C | 0
20 | G65C U97A A98U A114G U120A U130C | 0.71
21 | A60G U70C U122A | 0.58

Row | Variant | self-cleavage
22 | A60G U72C A118G A129G | 0.06
23 | A62G U97C U127C | 0.25
24 | A60G U70C U100C A118G | 0.94
25 | A66G A67G A69G U100C U131C | 1.39
26 | A63G A69C A82U A111G | 0.04
27 | A66G A90G A94G | 1.5
28 | A60G A91G U102C A110C | 0.48
29 | A60G G65U A129G | 0.11
30 | A63U A64G U87C A110G | 0.1
31 | A62U A94G A110G | 0.16
32 | A63G A78G A95G C105U U120C A129G U130C | 0.01
33 | A67U U87C A118G | 0.79
34 | A66U U103C U108C U120A | 0
35 | A67G A86G A116G | 0.73
36 | A60G A69U A82G U139C | 0.59
37 | A64G A116G U130C | 0.3
38 | A63G A110C A116U A129U | 0.05
39 | A62C A68U A94G U102A | 0.58
40 | A60U A89U A117G | 1.06
41 | A66G A69G U122C U124C | 1.24
42 | A66G A118G A126C | 0.53

Row | Variant | self-cleavage
43 | A60U A62U U127C | 0.44
44 | A63U A98U U122A | 1.54
45 | A67G A82G U139A | 0.55
46 | A60G A78U U102C U132C | 1.4
47 | A60G A68G U97A C112U | 0.04
48 | A63G A94G A140G | 2.17
49 | A60G A67G A69U A126G | 0.83
50 | A64G A82G U124C | 0.24
51 | A66G U87C U102C | 2.29
52 | A67G U87A A94G U102A | 1.37
53 | A62G A118G U132C | 0.93
54 | A60G C71U A129G | 0.13
55 | A62C A94G A126U | 1.5
56 | A66U A67G U87A U122C | 1.39
57 | A62G A90G A94G A111G | 0.01
58 | A62G A67G U130C | 1.17
59 | A63G A64G U132C A135G | 0.77
60 | C61U A63U A94G | 2.29
61 | A64G A92G A126U | 1.11
62 | A62G A95G U108C A114G U120C U131C | 0
63 | A64G A66G U108C A110G A118C | 0

Row | Variant | self-cleavage
64 | A63G U102A A140U | 0.59
65 | A62U U72A C109U | 0.04
66 | A66U G75C U97A A110G | 0.02
67 | A68G A86G A96G U132C | 1.84
68 | A66C A96G A111G A135G | 0.02
69 | C61U U130C U131C | 0.43
70 | A66G A89G A110G A126U | 0.12
71 | A63G U120C U132C | 0.47
72 | A64G C85U U100C | 1.57
73 | A63G A82U A94G U108C | 0.05
74 | A59U U103C A116G U127C | 0.11
75 | A64G A67G A111G A114G U133C | 0
76 | A60U G104U A118G | 0.01
77 | A64G G74A U87C A98U A118G | 0.11
78 | A64G U127C A134G | 1.07
79 | A63G A118U A129U | 0.66
80 | A64G U72A A96C U127C U131C | 0.07
81 | A62G A67G A69U A89G A117G | 1.39
82 | A60G A92G A111G | 0.03
83 | A64G G106A A117G | 0.02
